# Some of the results follow.
# Assays:
# Assay in all cases: glycan array binding signal (z-score within array); higher = stronger binding
# Conditions in all cases: glycan notation: IUPAC condensed, linker removed
# [1] = target: Fuc(a1-2)[GalNAc(a1-3)]Gal(b1-3)GalNAc(b1-3)Gal(a1-4)Gal(b1-4)Glc
# How it was run: (§1)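 Glycan array data came from 3228 arrays in the Consortium for Functional Glycomics database, and only arrays with an available protein sequence were kept. Glycan names were put into IUPAC-condensed notation, and columns mapping to the same glycan were averaged. The binding signal is a within-array Z-score, averaged across arrays of one protein sequence run at different concentrations or buffers and across linkers. A negative Z-score can be read as non-binding.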
# [2] = target: Fuc(a1-2)[GalNAc(a1-3)]Gal(b1-3)GlcNAc
# How it was run: as §1
# [3] = target: Fuc(a1-2)[GalNAc(a1-3)]Gal(b1-3)GlcNAc(b1-2)Man(a1-3)[Fuc(a1-2)[GalNAc(a1-3)]Gal(b1-3)GlcNAc(b1-2)Man(a1-6)]Man(b1-4)GlcNAc(b1-4)GlcNAc
# How it was run: as §1
# [4] = target: Fuc(a1-2)[GalNAc(a1-3)]Gal(b1-3)GlcNAc(b1-2)Man(a1-3)[Fuc(a1-2)[GalNAc(a1-3)]Gal(b1-3)GlcNAc(b1-2)Man(a1-6)]Man(b1-4)GlcNAc(b1-4)[Fuc(a1-6)]GlcNAc
# How it was run: as §1
# [5] = target: Fuc(a1-2)[GalNAc(a1-3)]Gal(b1-3)GlcNAc(b1-3)GalNAc
# How it was run: as §1
# [6] = target: Fuc(a1-2)[GalNAc(a1-3)]Gal(b1-3)GlcNAc(b1-6)GalNAc
# How it was run: as §1
# [7] = target: Fuc(a1-2)[GalNAc(a1-3)]Gal(b1-4)Glc
# How it was run: as §1
# [8] = target: Fuc(a1-2)[GalNAc(a1-3)]Gal(b1-4)GlcNAc
# How it was run: as §1
# [9] = target: Fuc(a1-2)[GalNAc(a1-3)]Gal(b1-4)GlcNAc(b1-2)Man
# How it was run: as §1
# [10] = target: Fuc(a1-2)[GalNAc(a1-3)]Gal(b1-4)GlcNAc(b1-2)Man(a1-3)[Fuc(a1-2)[GalNAc(a1-3)]Gal(b1-4)GlcNAc(b1-2)Man(a1-6)]Man(b1-4)GlcNAc(b1-4)GlcNAc
# How it was run: as §1
# [11] = target: Fuc(a1-2)[GalNAc(a1-3)]Gal(b1-4)GlcNAc(b1-2)Man(a1-3)[Fuc(a1-2)[GalNAc(a1-3)]Gal(b1-4)GlcNAc(b1-2)Man(a1-6)]Man(b1-4)GlcNAc(b1-4)[Fuc(a1-6)]GlcNAc
# How it was run: as §1
# [12] = target: Fuc(a1-2)[GalNAc(a1-3)]Gal(b1-4)GlcNAc(b1-3)Gal(b1-4)GlcNAc
# How it was run: as §1
# [13] = target: Fuc(a1-2)[GalNAc(a1-3)]Gal(b1-4)GlcNAc(b1-3)Gal(b1-4)GlcNAc(b1-3)Gal(b1-4)GlcNAc
# How it was run: as §1
# [14] = target: Fuc(a1-2)[GalNAc(a1-3)]Gal(b1-4)GlcNAc(b1-3)GalNAc
# How it was run: as §1
# [15] = target: Fuc(a1-2)[GalNAc(a1-3)]Gal(b1-4)GlcNAc(b1-3)[Fuc(a1-2)[GalNAc(a1-3)]Gal(b1-4)GlcNAc(b1-6)]GalNAc
# How it was run: as §1
# [16] = target: Fuc(a1-2)[GalNAc(a1-3)]Gal(b1-4)GlcNAc(b1-6)GalNAc
# How it was run: as §1
# [17] = target: Fuc(a1-2)[GalNAc(a1-3)]Gal(b1-4)[Fuc(a1-3)]GlcNAc
# How it was run: as §1
# [18] = target: Fuc(a1-2)[GalNAc(a1-3)]Gal(b1-4)[Fuc(a1-3)]GlcNAc(b1-3)GalNAc
# How it was run: as §1
# [19] = target: Fuc(a1-2)[GalNAc(a1-4)]Gal(b1-4)GlcNAc
# How it was run: as §1
# [20] = target: Fuc(a1-2)[GalNAc(b1-3)]Gal
# How it was run: as §1
# Fuc(a1-3)GlcNAc = target: Fuc(a1-3)GlcNAc
# How it was run: as §1
# [21] = target: Fuc(a1-3)[Gal(b1-4)]Glc6S
# How it was run: as §1
# [22] = target: Fuc(a1-3)[Gal(b1-4)]GlcNAc
# How it was run: as §1
# [23] = target: Fuc(a1-3)[Gal(b1-4)]GlcNAc(b1-2)Man
# How it was run: as §1
# [24] = target: Fuc(a1-3)[Gal(b1-4)]GlcNAc(b1-2)Man(a1-3)[Fuc(a1-3)[Gal(b1-4)]GlcNAc(b1-2)Man(a1-6)]Man(b1-4)GlcNAc(b1-4)GlcNAc
# How it was run: as §1
# [25] = target: Fuc(a1-3)[Gal(b1-4)]GlcNAc(b1-2)Man(a1-3)[Fuc(a1-3)[Gal(b1-4)]GlcNAc(b1-2)Man(a1-6)]Man(b1-4)GlcNAc(b1-4)[Fuc(a1-6)]GlcNAc
# How it was run: as §1
# [26] = target: Fuc(a1-3)[Gal(b1-4)]GlcNAc(b1-3)Gal(b1-3)[Fuc(a1-4)]GlcNAc
# How it was run: as §1
# [27] = target: Fuc(a1-3)[Gal(b1-4)]GlcNAc(b1-3)Gal(b1-4)[Fuc(a1-3)]GlcNAc
# How it was run: as §1
# [28] = target: Fuc(a1-3)[Gal(b1-4)]GlcNAc(b1-3)Gal(b1-4)[Fuc(a1-3)]GlcNAc(b1-3)Gal(b1-4)[Fuc(a1-3)]GlcNAc
# How it was run: as §1
# [29] = target: Fuc(a1-3)[Gal(b1-4)]GlcNAc(b1-3)GalNAc
# How it was run: as §1
# [30] = target: Fuc(a1-3)[Gal(b1-4)]GlcNAc(b1-4)Gal(b1-4)[Fuc(a1-3)]GlcNAc
# How it was run: as §1
# [31] = target: Fuc(a1-3)[Gal(b1-4)]GlcNAc(b1-4)Gal(b1-4)[Fuc(a1-3)]GlcNAc(b1-4)Gal(b1-4)[Fuc(a1-3)]GlcNAc
# How it was run: as §1
# [32] = target: Fuc(a1-3)[Gal(b1-4)]GlcNAc(b1-6)GalNAc
# How it was run: as §1
# [33] = target: Fuc(a1-3)[Gal(b1-4)]GlcNAc(b1-6)[Gal(b1-3)GlcNAc(b1-3)]Gal(b1-4)Glc
# How it was run: as §1
# [34] = target: Fuc(a1-3)[Gal(b1-4)]GlcNAc(b1-6)[Neu5Ac(a2-3)Gal(b1-3)]GalNAc
# How it was run: as §1
# [35] = target: Fuc(a1-3)[Gal(b1-4)]GlcNAc6S
# How it was run: as §1
# [36] = target: Fuc(a1-3)[Gal3S(b1-4)]Glc
# How it was run: as §1
binder,measurement,setting,value
rAAL-2 (Agrocybe aegerita) (protein) MTSNVITQDLPIPVASRGFADIVGFGLDGVVIGRNAVNLQPFLAVKNFAQNAGGWLTTKHVRLIADTTGTGKGDIVGFGNAGVYVSVNNGKNTFADPPKMVIANFGYDAGGWRVEKHLRYLADIRKIGRADIIGFGEKGVLVSRNNGGLNFGPATLVLKDFGYDAGGWRLDRHLRFLADVTGNGHLDIVGFGDKHVFISRNNGDGTFAPAKSVIDNFCIDAGGWKIGDHPRFVADLTGDGTADIIGCGKAGCWVALNNGGGVFGQVKLVINDFGTDKGWQAAKHPRFIADLTGNGRGDVVGFGNAGVYVALNNGDGTFQSAKLVLKDFGVQQGWTVSKHRRFVVDLTGDGCADIIGFGEKETLVSYNDGKGNFGPVKALTNDFSFSGGKWAPETTVCWMANLDSSRH,glycan array binding signal (z-score),[1],-0.402
same,glycan array binding signal (z-score),[2],0.139
same,glycan array binding signal (z-score),[3],0.114
same,glycan array binding signal (z-score),[4],0.174
same,glycan array binding signal (z-score),[5],0.117
same,glycan array binding signal (z-score),[6],-0.291
same,glycan array binding signal (z-score),[7],-0.025
same,glycan array binding signal (z-score),[8],0.075
same,glycan array binding signal (z-score),[9],-0.523
same,glycan array binding signal (z-score),[10],0.258
same,glycan array binding signal (z-score),[11],0.235
same,glycan array binding signal (z-score),[12],0.096
same,glycan array binding signal (z-score),[13],0.353
same,glycan array binding signal (z-score),[14],-0.149
same,glycan array binding signal (z-score),[15],-0.309
same,glycan array binding signal (z-score),[16],0.115
same,glycan array binding signal (z-score),[17],-0.247
same,glycan array binding signal (z-score),[18],-0.253
same,glycan array binding signal (z-score),[19],-0.368
same,glycan array binding signal (z-score),[20],-0.291
same,glycan array binding signal (z-score),Fuc(a1-3)GlcNAc,-0.182
same,glycan array binding signal (z-score),[21],-0.135
same,glycan array binding signal (z-score),[22],-0.29
same,glycan array binding signal (z-score),[23],-0.014
same,glycan array binding signal (z-score),[24],-0.175
same,glycan array binding signal (z-score),[25],-0.278
same,glycan array binding signal (z-score),[26],-0.401
same,glycan array binding signal (z-score),[27],0.05
same,glycan array binding signal (z-score),[28],-0.445
same,glycan array binding signal (z-score),[29],-0.253
same,glycan array binding signal (z-score),[30],-0.252
same,glycan array binding signal (z-score),[31],-0.189
same,glycan array binding signal (z-score),[32],-0.314
same,glycan array binding signal (z-score),[33],-0.23
same,glycan array binding signal (z-score),[34],-0.201
same,glycan array binding signal (z-score),[35],-0.216
same,glycan array binding signal (z-score),[36],-0.332

# Reference: the supplement of paper PMC8728848
